The text below walks through data of the supplement of paper PMC10338343.

± gives the standard deviation. In all, about 6,600 sequences were measured (“pre-steady-state target cleavage rate”: median about 0.07, highest 2% from about 0.72 on). This is a selection; strong and weak results do not stand in their true shares.

The test system of this assay is MIWI (PIWIL1) piRISC loaded with Kctd7 piRNA (30 nt). In words: pre-steady-state target cleavage rate (min^-1); MIWI and MILI are mouse PIWI proteins and EfPiwi is from a freshwater sponge; tags in brackets are library labels; higher = faster piRNA-guided slicing of the target. To be noted: guide: Kctd7 piRNA 5'p-UGUUAAUCUCUCAGAGAAGGUGACAGUGAU; auxiliary factor: 500 nM mouse GTSF1. The method in brief: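 Using HEPES–potassium acetate buffer at 33 °C, 1 nM active affinity-purified piRISC with a single synthetic guide was mixed with 0.1 nM transcribed, DNA-blocked target RNA library for 0–8 or 0–960 min, with or without 500 nM GTSF1 partner protein. Uncleaved targets were sequenced and normalised to depth and to weakly complementary targets, and three trials were pooled with k3 capped at 0.0001 min^-1. A burst-and-steady-state fit gave the pre-steady-state cleavage rate.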
Regarding AUCACUGUCACCUUCUCUGAGACUUUAACA, the “pre-steady-state target cleavage rate” value was 0.0319 ± 0.0087. As to AUCACUGUCACCAUCUCUGAGAGAUUUACA, the “pre-steady-state target cleavage rate” value turned out to be 0.357 ± 0.048.

On to UUCACGUGUCACCUUCUCUGAGAGAUUAACA, for which the “pre-steady-state target cleavage rate” value was 0.518 ± 0.024.

Turning to AUCACUGUCUCCUUCUCUGAGAGAUUAAGA, the “pre-steady-state target cleavage rate” value amounted to 0.0948 ± 0.02. UAGUGACAGUCCUUCUCUGAGAGAUGUAACA: the “pre-steady-state target cleavage rate” value was 0.0173 ± 0.0054. In the case of UAGACUGUCAGGUUCUCUGAGAGAUUAUGA, the “pre-steady-state target cleavage rate” value amounted to 0.00393 ± 0.0024. UAGUGAGUCACCUCCUCUGAGAGAUUAACA: the “pre-steady-state target cleavage rate” value is 0.705 ± 0.04.

As to UAGUGACAGUCCUUCUCUGUGAGAUUUACA, the “pre-steady-state target cleavage rate” value worked out at 0.0113 ± 0.003. Regarding UACACUGUCACCUUCACUGAGAGAUAUUGA, the “pre-steady-state target cleavage rate” value came out at 0.144 ± 0.046. The result for UAGUGAGUCACCUACUCUGAGAGAUUAUGA reads 0.0516 ± 0.013; that for UACACUGUCACCUUCUCUGAGAGAUGUAACA, 0.386 ± 0.051. For the sequence UAGUGACUCACCUAGUCUGAGAGAUUAACA, the “pre-steady-state target cleavage rate” value came out at 0.0555 ± 0.0059.

For AUCACUCUCACCUUCUCUGAGACAUUAACA, the “pre-steady-state target cleavage rate” value worked out at 0.358 ± 0.029. The result for UAGUGACACACGUUCUCUGAGAGAUUAACA reads 0.405 ± 0.038; that for UAGUGAGUCACCUGUCUCUGAGAGAUUAACA, 0.465 ± 0.038. UAGUCUGUCACCUACUCUGAGAGAUUAAGA: the “pre-steady-state target cleavage rate” value worked out at 0.115 ± 0.019.

Take UAGUGUGUGACCUUCUCUGUGAGAUUAACA: the “pre-steady-state target cleavage rate” value came out at 0.206 ± 0.016. UAGACUGGCACCUUCUCUGAGAGAUUAACA: the “pre-steady-state target cleavage rate” value was found to be 0.266 ± 0.054.

As for UACACUGUCACCUUCUCUGAGAGAUUAAUCA, the “pre-steady-state target cleavage rate” value was determined as 0.271 ± 0.036. As for UUCACUGUCACCAUCUCUGAGAGAAUAACA, the “pre-steady-state target cleavage rate” value was 0.251 ± 0.043. For UACACUGUCACCUUCUCUCAGAGAUUUUGA the value was 0.0196 ± 0.0096; for UAGUGACAGUGGAAGUCUGAGAAUUAACA, below 0.0001; for “UAGUGACAGUGGUUCUCUGAGAGAUUAACC [g2:g18:cont:t1C]”, below 0.0001. Turning to UUCACUGUCACCUUCUCUAGAGAGAUUAACA, the “pre-steady-state target cleavage rate” value came to 0.0879 ± 0.032. UAGUCUGAGUCCUUCUCUGAGAGAUUAAGA: the “pre-steady-state target cleavage rate” value is 0.0109 ± 0.003.

Turning to UAGACUGACACCUUCUGUGAGAGAUUAACA, the “pre-steady-state target cleavage rate” value is 0.363 ± 0.022. The result for UACACUCACACCUUCUCUGAGAGAUUAACA reads 0.558 ± 0.046; that for UAGUGACACACUCUUCUCUGAGAGAUUAACA, 0.239 ± 0.031. Turning to UAGACUGUCACCUUCUCUUAGAGAUUAACA, the “pre-steady-state target cleavage rate” value worked out at 0.344 ± 0.017. For the sequence UAGUGACUCACCUUCGUCUGAGAGAUUAACA, the “pre-steady-state target cleavage rate” value came to 0.0106 ± 0.0031.

Turning to UUCUCUGUCACCUUCUCUGUGAGAUUAACA, the “pre-steady-state target cleavage rate” value came to 0.259 ± 0.016.

For UUCAGUGUCACCUUCUCUGUGAGAUUAACA, the “pre-steady-state target cleavage rate” value is 0.198 ± 0.014. On to AUCACUGUCUACCUUCUCUGAGAGAUUAACA, for which the “pre-steady-state target cleavage rate” value was 0.24 ± 0.026.

Turning to UAGUGACAGUGGAAGAGACUCAGAUUAACA, the “pre-steady-state target cleavage rate” value was below 0.0001. As for UUCACUGUCACGAUCUCUGAGAGAUUAAGA, the “pre-steady-state target cleavage rate” value was determined as 0.0736 ± 0.011. Consider UAGUGACACACCUUGUCUGAGAGAUUUACA, for which the “pre-steady-state target cleavage rate” value was found to be 0.0291 ± 0.01. For UAGUGUGUCACCUUCGCUGAGAGAUUAACA the value was 0.294 ± 0.029; for UACACUGUCACCUUCUCUGAGAGAGUAACA, 0.299 ± 0.042; for UAGUGACAGUGGAAGAGAGAGAGAUUUAACA, below 0.0001.

UAGUGACACACCUUCUCUGAGUGAUUUACA: the “pre-steady-state target cleavage rate” value amounted to 0.0088 ± 0.0047.

As for UAGUGACACACCUAUCUCUGAGAGAUUAACA, the “pre-steady-state target cleavage rate” value is 0.163 ± 0.019. With AUCACUCUCACCUUCUCUGUGAGAUUAACA, the “pre-steady-state target cleavage rate” value came out at 0.221 ± 0.012. For UAGUGAGUCACCUUCUCUGGGAGAUUAACA, the “pre-steady-state target cleavage rate” value came to 0.388 ± 0.02. For the sequence UACACUGUCACCUUCACUGAGAGAAUAACA, the “pre-steady-state target cleavage rate” value was found to be 0.178 ± 0.04. For UAGACUGUCACCUUCUCUGAGAGAUUAAUCA the value was 0.407 ± 0.047; for UUCACUGUCACCUUCUCUGAGAGAUGAACA, 0.172 ± 0.029.

In the case of UAGUCUGUCAGCUUCUCUGAGAGAUAAACA, the “pre-steady-state target cleavage rate” value worked out at 0.24 ± 0.027. Regarding UAGUGACACACCUUCUCUGAGAGAUUACA, the “pre-steady-state target cleavage rate” value stood at 0.0728 ± 0.023. As to UAGUGAGUCACCUUCUCAGAGAGAUUAUGA, the “pre-steady-state target cleavage rate” value came out at 0.0274 ± 0.01.

UAGUGUGUCACCUUCUCUGUGAGAUAAACA: the “pre-steady-state target cleavage rate” value worked out at 0.0888 ± 0.01. With UUCACUGACACCUUCUCUGACAGAUUAACA, the “pre-steady-state target cleavage rate” value was 0.332 ± 0.016. Turning to UACACUGUCACCUUCUCUGAGAGACUUAACA, the “pre-steady-state target cleavage rate” value turned out to be 0.355 ± 0.043. Regarding UAGUGUGUCACCUUCUCUGAGUCUUUAACA, the “pre-steady-state target cleavage rate” value came out at 0.00492 ± 0.0034. With UUCACAGUCACCUUCUCUGAGAGUUUAACA, the “pre-steady-state target cleavage rate” value was 0.548 ± 0.083. For UACACUGUCACCUUCUCUGAGAGAUUUACA the value was 0.381 ± 0.048; for UUCACUGUCACCUUCUCUGAGAGACUUAACA, 0.345 ± 0.042. As to UAGUGAGUCACCUUCUGUGAGAGAUUAUGA, the “pre-steady-state target cleavage rate” value worked out at 0.0461 ± 0.015. The result for UAGUGAGUCACCUUGUCUGAGAGAUUUACA reads 0.0459 ± 0.016; that for UACACUGUCACCUUCUCUGACUGAUUAACA, 0.014 ± 0.0056; that for UUCACUUCACCUUCUCUGAGAGAUUAACA, 0.607 ± 0.031. For the sequence UAGUGAGUCACCUUCUCUGAGGAGAUUAACA, the “pre-steady-state target cleavage rate” value came out at 0.0114 ± 0.005.

Take UAGUGUGUCACCUUCACAGAGAGAUUAACA: the “pre-steady-state target cleavage rate” value is 0.0668 ± 0.01. Turning to UUCACUGUCACCUUCUCUGAGAGAUCUAACA, the “pre-steady-state target cleavage rate” value turned out to be 0.305 ± 0.047. Turning to UAGACUGUCACCUUGUCUGAGAGAUUAACA, the “pre-steady-state target cleavage rate” value amounted to 0.495 ± 0.075. For UAGUGAGUCAGGUUCUCUGAGAGAUUAACA, the “pre-steady-state target cleavage rate” value was 0.251 ± 0.026. As for UAGUGACUCUCCUUCUCUGAGAGAUUAACA, the “pre-steady-state target cleavage rate” value came out at 0.146 ± 0.015. Consider UAGUGACAGUCCUUGUCUGAGAGAUUAUCA, for which the “pre-steady-state target cleavage rate” value came to 0.00495 ± 0.0035. On to UAGUCUGUCACCUUCUGAGAGAGAUUUUGA, for which the “pre-steady-state target cleavage rate” value is 0.00964 ± 0.0056. For the sequence AUCACUGUCACCUUGUCAGAGAGAUUAACA, the “pre-steady-state target cleavage rate” value stood at 0.268 ± 0.032. In the case of UAGUGAGUCACCAUCUCUCAGAGAUUAACA, the “pre-steady-state target cleavage rate” value amounted to 0.0489 ± 0.0091.

In the case of UAGUGUCUCAGCUUCUCUGAGAGAUUAACA, the “pre-steady-state target cleavage rate” value came out at 0.437 ± 0.031.

For the sequence UAGUGUGUCACCUUCUCUCAGACAUUAACA, the “pre-steady-state target cleavage rate” value is 0.0309 ± 0.0057.
